From PubChem BioAssay AID624417 (National Center for Advancing Translational Sciences (NCATS), 2012)
Screen size: about 410,000 compounds; about 6,400 (1.6%) were called active. This list was built around the results that the source calls inconclusive (neither active nor inactive); the mix of calls is not that of the screen. Calls follow the shape of the dose curve; as a rule, active = well fitted inhibition curve with a large enough effect; inconclusive = small, poorly fitted or top-dose-only effect; inactive = no such curve, though single readings can be large or run the other way. Potencies of inconclusive entries are left out as doubtful fits.

molecular target: Glucagon-like peptide 1 receptor (Homo sapiens) (UniProt P43220); assay: qHTS of GLP-1 Receptor Inverse Agonists (Inhibition Mode); settings: HEK293 GLP-1R CRE-luciferase, luminescence, 24 h, GLP-1R form is constitutively active; activity change, negative = inhibition: at 38.3 µM (top of the series) unless noted; also: nearly all actives have a fitted effect of over 55% in size
Procedure, shortened: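 Luminescence readout: a drop in cAMP-driven luciferase signal flags inverse agonism at a constitutively active GLP-1R stably expressed in HEK293. Compound exposure lasted 24 hr at 37 deg C, 5% CO2.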
% is scaled to controls: 0 for no effect and ±100 for the full control effect; potency is read from the fitted curve at half-maximal effect; tags tell the direction and shape of the fitted curve.

Chain of UniProt P43220 (P43220 whole entry, looked up): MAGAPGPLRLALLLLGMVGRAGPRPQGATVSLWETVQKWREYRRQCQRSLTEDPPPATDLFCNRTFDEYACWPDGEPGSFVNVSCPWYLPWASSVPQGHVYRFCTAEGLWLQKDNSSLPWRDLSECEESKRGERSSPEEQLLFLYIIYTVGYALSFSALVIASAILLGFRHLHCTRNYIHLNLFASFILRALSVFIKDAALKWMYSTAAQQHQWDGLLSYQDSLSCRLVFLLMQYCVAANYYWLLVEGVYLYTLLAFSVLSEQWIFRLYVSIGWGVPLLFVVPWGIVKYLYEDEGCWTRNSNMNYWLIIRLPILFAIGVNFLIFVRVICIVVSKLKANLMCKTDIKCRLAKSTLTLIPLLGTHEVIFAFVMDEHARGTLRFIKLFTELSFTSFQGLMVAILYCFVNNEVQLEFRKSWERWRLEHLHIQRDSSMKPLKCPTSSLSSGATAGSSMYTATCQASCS

Structure (SMILES)	Potency	activity change, negative = inhibition
CCOC(=O)CN(c1sc(C)c(C)c1C(=O)OCC)S(=O)(=O)c1ccc(C)cc1	inconclusive [inhibitor, single point]	
Cn1c(C(=O)N2CCCC(C(=O)NCc3ccc4c(c3)OCO4)C2)cc2sccc21 (stereo unspecified)	inconclusive [inhibitor, partial curve, poor fit]	
O=C(COc1cccc(NC(=O)c2cccc([N+](=O)[O-])c2)c1)c1ccc(F)cc1	inconclusive [inhibitor, partial curve, poor fit]	
Cc1ccccc1Nc1cc2ccccc2c(=O)[nH]1		inactive: 20.1%
COc1ccc(S(=O)(=O)N2CCN(CC(=O)N3CCNC3=O)CC2)cc1OC		inactive: 66.6%
O=Cc1cccc(OC(=O)/C=C/c2ccco2)c1		inactive: 53.9%
COc1ccc2c(c1)c1ncn(CCCN3CCOCC3)c(=O)c1n2C		inactive: 0%
Cc1ccc(C(=O)Nc2ccccc2C(=O)O)cc1S(=O)(=O)N1CCCCCC1		inactive: 6.32%
O=C(C(=O)N1CCN(C(=O)c2ccco2)CC1)c1ccccc1		inactive: -4.28%
CCCCCOc1ccc(NC(=O)Cc2csc(C)n2)cc1		inactive: 2.65%
Cc1ccc(C2(c3noc(CN(C)CC4COCCO4)n3)CCCC2)cc1 (stereo unspecified)	inconclusive [inhibitor, full curve, poor fit]	
Clc1ccc(C[n+]2cc(-c3ccccc3)n3c2CCC3)cc1	inconclusive [inhibitor, single point]	
O=C1/C(=C\c2ccc(O)cc2)SC(=S)N1c1cccnc1		inactive: -10.3%
COc1cc(-c2nnc(SCC(=O)N(Cc3ccccc3)C(C)(C)C)o2)cc(OC)c1OC	inconclusive [inhibitor, partial curve, poor fit]	
Cc1c(C)c2c(OCC(=O)N3CCC(C(=O)O)CC3)cc3c(c2oc1=O)CCC(C)(C)O3		inactive: 77.6%
Cc1ccc(/C=C/C(=O)O)cc1S(=O)(=O)N1CCCCC1		inactive: 6.98%
O=C(O)COc1ccccc1/C=N/NC(=O)c1ccc2c(c1)OCCO2		inactive: 0%
CN(C(=O)Cn1cc(S(=O)(=O)N2CCN(c3ccccc3F)CC2)c2ccccc2c1=O)c1ccc(Cl)cc1	inconclusive [inhibitor, partial curve]	
CNCCOc1ccc(Cl)c(Cl)c1	inconclusive [inhibitor, partial curve, poor fit]	
Cc1nc2cc(N3CCN(C)CC3)c(NC(=O)Cc3ccccc3)cc2c(=O)n1Cc1ccccc1	inconclusive [inhibitor, partial curve, poor fit]	
Cc1ccccc1S(=O)(=O)N1C[C@H]2CON(C)[C@H]2C[C@H]1c1cccc(-c2ccccc2)c1	inconclusive [inhibitor, single point]	
